Experimental data reported in PubChem BioAssay AID894 (National Center for Advancing Translational Sciences (NCATS), 2007).
In all, about 150,000 compounds went through this assay and about 6,500 (4.3%) were called active. The inconclusive results got no clear call from the source; some entries with a clear call stand among them for comparison. The call rests on the fitted dose curve; in most records, active means well fitted inhibition curve with a large enough effect (not every such curve was filed as active); inconclusive means small, poorly fitted or top-dose-only effect, or another doubt; inactive means no such curve, though single readings can be large or run the other way. A potency beside an inconclusive call is a rough fit, not a confirmed value.

target: 15-hydroxyprostaglandin dehydrogenase [NAD(+)] (Homo sapiens) (UniProt P15428); assay: qHTS Assay for Inhibitors of HPGD (15-Hydroxyprostaglandin Dehydrogenase); details: purified HPGD, NADH fluorescence kinetic, PGE2 substrate; activity change, negative = inhibition: hits give low values
Procedure, shortened: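 NADH formation kinetics: reaction with 30 uM PGE2 and 1 mM NAD+ (final), 20 nM enzyme, Tris-HCl pH 8 with Tween 20, after 15 min compound preincubation at room temperature. Fluorescence change, last versus first of five reads.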
On the % scale 0 is the no-effect control and ±100 the full control effect; potency means the concentration at half of the fitted maximal effect; tags describe the fitted curve by direction and shape.

UniProt P15428, sequence (P15428 whole entry, looked up): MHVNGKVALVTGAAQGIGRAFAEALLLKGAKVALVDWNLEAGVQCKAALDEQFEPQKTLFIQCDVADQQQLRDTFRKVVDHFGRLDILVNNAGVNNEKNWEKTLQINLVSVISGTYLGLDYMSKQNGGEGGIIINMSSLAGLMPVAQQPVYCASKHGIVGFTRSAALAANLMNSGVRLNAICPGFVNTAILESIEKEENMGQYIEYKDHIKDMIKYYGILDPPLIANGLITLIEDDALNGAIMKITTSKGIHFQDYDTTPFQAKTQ

Potency, active:
COc1cc(/C=C(\C#N)C(N)=O)ccc1OS(=O)(=O)c1ccc(C)cc1 28.2 µM
CNC(=O)c1c(N)sc2c1CCCCC2 31.6 µM
O=C(CSc1n[nH]c(-c2cccs2)n1)NCc1cccs1 17.8 µM
COc1cc(SC)ccc1C(=O)NC1CCCCC1 22.4 µM
O=C(c1ccc(N2CCOCC2)cc1)c1cccs1 12.6 µM
CN(Cc1ccccc1)C(=S)NC(=O)c1ccc(-c2ccccc2)cc1 14.1 µM
Cc1ccc(-n2c(C3CC3c3ccc(Cl)cc3)n[nH]c2=S)cc1 (centres undefined) 8.91 µM
Cc1cc(C)c[n+](-c2[nH]c(=O)sc2/C=N/NC([S-])=Nc2ccccc2)c1 28.2 µM
O=C(NCC12CC3CC(CC(C3)C1)C2)c1nn2cccnc2c1Cl 17.8 µM
COc1cc(OC)cc(-c2n[nH]c(=S)n2-c2ccc3c(c2)OCO3)c1 25.1 µM
CC(C)(C)c1ccc(C(=O)OCCNC(=O)c2c(Cl)nc3ccccn23)cc1 11.2 µM
CCOC(=O)c1c(C)n(-c2ccc(C)cc2)c2c(C(C(C)=O)C(=O)O)c(Br)c(O)c(O)c12 (centres undefined) 17.8 µM

Potency, inconclusive:
O=C(Nc1ccc(F)cc1)N(CCCN1CCOCC1)Cc1cc2cc3c(cc2[nH]c1=O)OCCO3 35.5 µM [inhibitor, partial curve]
CN(C)S(=O)(=O)c1ccc(N2CCCC2)c(C(=O)Nc2nc3c(ccc4ccccc43)s2)c1 25.1 µM [inhibitor, partial curve]
COc1ccc(-c2cc(C(=O)N/N=C/c3ccc(OC)c(COCC(F)(F)C(F)F)c3)c3ccccc3n2)c(OC)c1 25.1 µM [inhibitor, partial curve]
C/C(=N\NC(=O)c1csc(C)c1C)c1ccco1 28.2 µM [inhibitor, single point]
O=C(/C=C/c1ccccc1)N1CCC(c2ccccc2)C1 (centres undefined) 7.08 µM [inhibitor, single point]
Cc1nc2cc(-c3ccc(Cl)cc3)nn2c(C)c1CCC(=O)NC(C)c1ccc2c(c1)OCCO2 (centres undefined) 28.2 µM [inhibitor, partial curve]
COc1ccccc1Oc1c(C)oc2c(CN(C)C)c(O)ccc2c1=O 28.2 µM [inhibitor, partial curve]
O=C(Nc1ccc(-c2noc(COc3ccccc3Cl)n2)cc1)c1ccco1 28.2 µM [inhibitor, partial curve]
CCOC(=O)C1CCCN(C(=O)c2cc3nc(-c4ccc5c(c4)OCO5)cc(C(F)(F)F)n3n2)C1 (centres undefined) 14.1 µM [inhibitor, partial curve]
Cc1ccc(C)c(NC(=S)c2nc3ccccc3s2)c1 28.2 µM [inhibitor, partial curve]
O=C(NCc1ccccc1)c1ccc(-c2ccc(F)cc2)o1 22.4 µM [inhibitor, partial curve]
Cc1ccc(-c2c(C#N)c(N)n3c(nc4ccccc43)c2C#N)cc1 15.8 µM [inhibitor, partial curve]
CCCc1cc(=O)oc2cc(OCC(=O)N3CCc4ccccc43)ccc12 28.2 µM [inhibitor, single point]
COc1ccc2ncn(-c3ccccc3)c2c1 35.5 µM [inhibitor, partial curve]
CC(c1ccccc1)N1CCn2c(nc3cc(NC(=O)NC4CCCCC4)ccc32)C1 (centres undefined) 3.98 µM [inhibitor, full curve]
COCCN1CCN(c2cc(-c3ccccc3)nc3cc(-c4cccc(F)c4)nn23)CC1 31.6 µM [inhibitor, partial curve]
Cc1ccc(OCCCC(=O)NC(C)c2ccccc2)cc1 (centres undefined) 17.8 µM [inhibitor, partial curve, poor fit]
C=CCSc1nc(N)c(C(=O)Nc2ccccc2)cc1C#N 35.5 µM [inhibitor, single point]
COC(=O)c1ccc(C(=O)OC)c(NC(=O)c2cnc3n(c2=O)CCS3)c1 28.2 µM [inhibitor, partial curve]
O=C(/C=C/c1ccc2c(c1)OCO2)NCCCN1CCOCC1 14.1 µM [inhibitor, partial curve]
Cc1oc2cc(O)ccc2c(=O)c1Oc1ccccc1 25.1 µM [inhibitor, partial curve]

Activity change, negative = inhibition, inactive:
COc1ccc(Nc2nc3ccccc3nc2NS(=O)(=O)c2cccs2)cc1 -15.4%
CCCCCC(O)/C=C/C=C\CCCCCCCC(=O)O (centres undefined) -1.6%
CCC/C(=N\NC(=O)c1cccc(C)c1)c1ccccc1 -9.24%
CC(C)[C@H](N=Cc1ccccc1O)C(=O)O -4.16%
N#Cc1ccc(/C=N/N=C(N)N)cc1 -9.39%
O=c1cc(-c2cccc(F)c2)[nH]c2cc(Cl)ccc12 -7.29%
CC1CN(C(=O)c2ccc3c(c2)OCO3)OC(c2ccccc2)O1 (centres undefined) -4.25%
O=C(Nc1ccc(Cl)cc1)Nc1cc([N+](=O)[O-])ccc1F -1.17%
Cc1nn(-c2ccccc2)c(C)c1/C=N\N1CCN(c2ccc(Cl)cc2)CC1 -5.39%
O=C(CSCc1ccc(Br)cc1)Nc1ccc(S(=O)(=O)N2CCOCC2)cc1 -3.28%
CN(Cc1ccccc1)S(=O)(=O)c1ccc(Cl)nc1 -22.4%
C#C[C@@]1(O)CCC2C3CCC4=CC(=O)CCC4C3CC[C@@]21CC (some centres undefined) -9.04%
CCOC(=O)C1CCN(C(=O)c2ccc(Br)o2)CC1 -12.6%
O=C(Cc1ccccc1)NNS(=O)(=O)c1ccc([N+](=O)[O-])cc1 -13.6%
c1ccc2[nH]c(SCCN3CCOCC3)nc2c1 -3.96%
c1ccc(SCc2nc(-c3ccccn3)no2)cc1 -8.37%
